Test results reported in article PMC10726135.
The other results are listed elsewhere or left out. At the low end of the ranking the order means little. Measured with an extract: partners may take part in the binding.

biological target: T1, HNF4alpha8 (COS-7 nuclear extract) (UniProt P41235-5); test: protein-binding microarray; settings: COS-7 nuclear extract on double-stranded Agilent 4x180k PBM; binding buffer, salt, pH and temperature not given; high values mean tight binding; double strand, one strand shown; sequences stand for … in …GCCTAGGGAGATTAGAGTATCGGTCGA
T1 sequence: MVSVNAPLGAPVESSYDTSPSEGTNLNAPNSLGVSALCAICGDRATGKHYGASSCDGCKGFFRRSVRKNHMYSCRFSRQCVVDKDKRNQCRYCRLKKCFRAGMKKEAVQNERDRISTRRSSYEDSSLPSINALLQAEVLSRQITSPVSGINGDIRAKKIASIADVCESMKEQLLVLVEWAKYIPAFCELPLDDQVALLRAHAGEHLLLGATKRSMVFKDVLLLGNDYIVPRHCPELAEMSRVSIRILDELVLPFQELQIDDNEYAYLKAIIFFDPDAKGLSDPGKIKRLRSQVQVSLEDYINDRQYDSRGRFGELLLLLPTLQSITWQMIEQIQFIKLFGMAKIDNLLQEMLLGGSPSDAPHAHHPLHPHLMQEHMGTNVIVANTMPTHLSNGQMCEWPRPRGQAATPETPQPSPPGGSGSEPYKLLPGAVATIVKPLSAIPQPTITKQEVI

Sequence | binding signal (log2 normalized intensity)
GCTGCTTTAGACATGAGATAGCATTCCAAG | -1.16
GGGTATAACCTTCTTCTATGCCCTCTTCTG | 2.58
GAGGTCACCCTGTGTCAGCGACTGGGCAGT | -0.775
GGAGCCCCCTGGGGGAGGTTTCCTGCTGTC | -1.37
CCTTTTGTGTAGGAGTACACTCAGCACACC | 1.36
CAGGGATTATTAATTTACTGAAAAGTCTAC | -0.369
GGATTATGGAGATGGAGATGGCCTGGAGGT | 0.909
AATTATCCAGATCAAGGATTTTTTCTTGGA | -1.28
CGACCTGCTGGACGGGAGGAAAACTGGGCA | -1.3
TAAAGGCTTTTAAAGGCTAGTGAAACATGC | -1.34
GGTCGAAAGGCAGGCAGTGGAGGGCTCCCT | -1.37
TTTTCCACCCTCCCCTCCCCCTCCTCCCCT | 7.22
GCAAAGTGGCTAGGACCTTTGAACCAGAGA | 5.24
GTCAGCTTCAGCCAGATAGCCACTGGGGTC | 2.88
CGCCCCCATTATCTCCTTAGGTACTTTTCT | 0.603
GGACTCATTCTCCCCTGGAGTCTTAAATCC | 0.808
TATCAGGTGGTGATGGTGGGAGGGAGGCTT | -1.26
AGGAGCCTTCCGGAGGCTCTGCTGAAGAGA | -1.4
CCCAGGTACGGAGGACAGCCACCCGTGCTT | -1.2
AAGCCCCAAATCTAGCATCAGTGAGTCAAG | 0.898

Sequence | binding signal (log2 normalized intensity)
AGAAAGCAAAGTCCCTGGGGACAGGGATTA | -1.24
GAGTGGACTTTGGCTTATGCAAATGTTATG | 4.89
TTATCCCAAATGTTTGCACTGAGGAATGGA | 0.907
CTGCAGATTCCACCTTAGAGGGACGAAGGT | -1.37
TGTGGTTATCTGTTGGGGAATCAGTCCATA | 1.71
CCCCATCGCACGGCAGAACTGGTGACCGGA | 2.02
AAACGATGTGAGGTCTCTGCATACCAGGTA | -1.26
GTATCTAATCTCAGATATGCTAATTAACCC | 1.45
CTGCCAGGGAGACAAAGTGTCACAAACTAT | -1.34
AAGAGCCGGCCGGCGGGGTCACGTGGGGCC | 3.6
AAGAGTCAAAGGGCAAAGGAATAAAATAGC | 1.46
TGAGAATCTGACCTTTGGTTAACTTCTTAA | 5.07
TCCACTGTGTTCTTGTTTGCTAAGTGAGAA | 1.05
CAGTCTCAGTGGGCTAAACATCAAGACAGG | -1.19
CCTAATGGGGTACTTGAACCCTACTCATAA | 2.63
TATGTGAGTACACACTGTAAAATTTCATGG | 1.06
AGGTAATGGTCTCTCCCAGCGGGTCATTAA | 1.86
AGTTTTGCAACATACTGAAAAAGGGTTGTG | 1.23
CGTAATCCCAGCTTATGTTTGCAAGTCGAG | 1.13
GGGGCGCGGCCTAATGCCTGGGAAAATGTT | -0.928
